Laboratory results: patent US20220323495A1
Results are given in words; binding and its absence hold for the method and conditions named. Some entries that bind do so weakly or less than the wild type.

Experiments:
[1] = molecular target: T1, EGFRvIII amino acid residues 15 to 37 with Gly21 to Ala mutation, yeast-displayed (human); experiment: condition: 0% to 15% of binding to the wild-type fragment; flow cytometry on yeast displaying the mutated 15-37 fragment
T1 sequence (peptide): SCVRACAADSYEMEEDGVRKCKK

[2] = molecular target: T2, EGFRvIII amino acid residues 15 to 37 with Cys35 to Ala mutation, yeast-displayed (human); experiment: as above
T2 sequence (peptide): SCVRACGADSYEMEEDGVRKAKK

[3] = molecular target: T3, EGFRvIII amino acid residues 15 to 37 with Arg18 to Ala mutation, yeast-displayed (human); experiment: as above
T3 sequence (peptide): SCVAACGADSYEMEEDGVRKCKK

[4] = molecular target: T4, EGFRvIII amino acid residues 15 to 37 with Cys20 to Ala mutation, yeast-displayed (human); experiment: as above
T4 sequence (peptide): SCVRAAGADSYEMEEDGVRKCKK

[5] = molecular target: full length hEGFRvIII protein, yeast-displayed (human) (UniProt P00533); experiment: flow cytometry on yeast displaying EGFRvIII constructs

B1: F269-3D12 anti-EGFRvIII monoclonal antibody (antibody, V domains shown)
VH: EVQLQQSGPELVKPGSSVRISCKASGYTFTDYNMDWVKQSHGKSLEWIGTINPNNGGTSYNQKFKGKATLTVDKSSSTAYMELRSLTSEDSAVYYCARVRQLGLWFAYWGQGTLVTVSA
VL: EIVLTQSPALMAASPGEKVTITCSVSSSISSSNLHWYQQKSETSPKPWIYGTSNLASGVPVRFSGSGSGTSYSLTISSMEAEDAATYYCQQWSSYPLTFGSGTKLEIK
With B1 the binding [1] was “no binding”, the binding [2] was “no binding” and the binding [3] was “no binding”. The binding [4] was “no binding” and the binding [5] was “binds”.
